Laboratory results as given in PubChem BioAssay AID485367 (National Center for Advancing Translational Sciences (NCATS), 2010).
Hit rate of the full screen: of about 330,000 compounds, about 560 (0.17%) were called active. The shares of active, inactive and inconclusive entries below differ from those in the screen. The call rests on the fitted dose curve; in most records, active means well fitted inhibition curve with a large enough effect; inconclusive means small, poorly fitted or top-dose-only effect, or effect the other way; inactive means flat fitted curve, though single readings scatter. No potency is given beside an inconclusive call; the fits are too rough.

The compounds below were run against ATP-dependent 6-phosphofructokinase (Trypanosoma brucei brucei) (UniProt O15648) (assay: qHTS Assay to Find Inhibitors of T. brucei phosphofructokinase). Conditions: T. brucei PFK, ADP-Glo luminescence; activity, negative = inhibition: at 57.5 µM (top of the series).
UniProt O15648, sequence (O15648 whole entry, looked up): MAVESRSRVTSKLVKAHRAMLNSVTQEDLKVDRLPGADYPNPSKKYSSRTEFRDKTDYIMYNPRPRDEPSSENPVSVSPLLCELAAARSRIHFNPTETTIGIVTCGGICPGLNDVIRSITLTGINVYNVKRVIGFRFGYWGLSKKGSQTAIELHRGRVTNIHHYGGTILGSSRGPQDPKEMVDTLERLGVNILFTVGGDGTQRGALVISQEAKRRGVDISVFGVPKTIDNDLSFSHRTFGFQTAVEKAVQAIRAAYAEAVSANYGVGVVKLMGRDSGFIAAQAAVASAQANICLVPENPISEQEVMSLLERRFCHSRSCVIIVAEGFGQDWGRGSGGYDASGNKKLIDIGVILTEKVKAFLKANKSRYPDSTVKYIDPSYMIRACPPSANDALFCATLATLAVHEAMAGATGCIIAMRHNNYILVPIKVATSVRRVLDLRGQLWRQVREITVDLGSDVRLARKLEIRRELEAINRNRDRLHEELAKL
Source text: NIH Molecular Libraries Probe Production Network [MLPCN] NIH Chemical Genomics Center [NCGC] Grant: 1 R03 MH092153-01 PI Name: Malcolm Walkinshaw, University of Edinburgh NCGC Assay Overview: Various species of the protozoan family Trypanosomatidae are responsible for a range of serious human diseases in tropical and subtropical areas of the world. […] Many of the disorders caused by trypanosomatids are fatal if left untreated, but most currently used drugs are inefficient and toxic. […] Oxidative metabolism involving the mitochondrial tricarboxylic acid cycle and oxidative phosphorylation are repressed in these parasites, and recent RNA interference (RNAi) experiments have shown that even partial depletion of certain individual glycolytic enzymes can lead to the death of cultured parasites. One such glycolytic enzyme, phosphofructokinase (PFK), catalyzes the formation of fructose-1,6-bisphosphate (F1,6BP) and ADP from fructose-6-phosphate (F6P) and ATP, and in many metabolic circumstances makes an important contribution to the control of flux through the glycolytic pathway. As a specific glycolytic target, PFK is particularly attractive as it catalyzes the first irreversible step in glycolysis, and structural and kinetic studies have shown very substantial and essential differences from corresponding host enzymes, allowing for the discovery of parasite-selective inhibitors. The goal of this screen is to find small-molecule inhibitors of T. brucei PFK using a biochemical assay that measures PFK activity as a function of ADP production. A luminescence-based assay for T. brucei PFK activity has been developed which uses luciferase to detect production of ADP. Traditional luciferase-based nucleotide detection reagents rely on ATP production as a direct substrate for the luciferase reaction; however, PFK catalyzes the transfer of a phosphate from ATP to F6P, resulting in the net depletion of ATP. To directly measure the ADP product of the PFK reaction, we used the ADP-Glo detection kit (Promega), which utilizes two separate reactions to 1) deplete all remaining uncatalyzed ATP and 2) convert all remaining ADP to ATP, which is then detected through a traditional luciferase-coupled reaction. Compounds were screened as a concentration-titration series that ranged from 57 uM to 0.7 nM.
NCGC Assay Protocol Summary: NCGC Assay Protocol Summary: Substrate buffer was dispensed into white, solid 1536-well plates at 3uL/well in 0.1M triethanolamine (TEA) buffer, pH 8.0, containing final concentrations of 5 mM MgCl2, 0.01% Tween20, 0.5 mM fructose-6-phosphate (F6P) and 0.1mM ATP. Then, 23 nL of compounds or DMSO were delivered to each well using a pin tool. One uL T. brucei PFK (0.1M TEA, 0.01% Tween20, 0.1% bovine serum albumin (BSA) and 1.25nM PFK, final concentrations) was then dispensed, and plates were incubated at room temperature for 45 min. The luminescent detection reagent, ADP-Glo (Promega), was then added in two steps: the first reagent, ADP-Glo (which converts remaining uncatalyzed ATP), was added at 2.5uL/well and incubated for ten minutes at room temperature, and the second component, Kinase Detection reagent (which converts ADP to ATP as a substrate for luciferase-based luminescence), was added immediately after at 5uL/well, followed by one final ten minute room temperature incubation. The plates were measured on a ViewLux plate reader for luminescent signal using a clear filter with a one second exposure. The %Activity was determined from the corrected luminescence values. As no specific T. brucei PFK inhibitors have been identified in the literature, 1x (1.25nM) and 0x PFK enzyme controls (untreated) were included to normalize %Activity of identified inhibitors; 0x enzyme values corresponded to 100%Activity (full inhibition), while 1x PFK enzyme values were used to normalize 0%Activity (no inhibition). Concentration-response curves were fitted to the signals arising from the resulting luminescence. […]
Further: nearly all actives have a fitted effect of over 60% in size.
Potency means the concentration at half of the fitted maximal effect; tags describe the fitted curve by direction and shape.

Row | Structure (SMILES) | Potency | activity, negative = inhibition
1 | O=C(Nc1nnc(C2CC2)s1)C1CC(=O)N(c2ccc3c(c2)OCCO3)C1 (stereo not given) | inconclusive [falling, single point] | 
2 | O=C(CN1CCN(c2ccccc2O)CC1)NCCCc1ccccc1 |  | inactive: 0.404%
3 | COc1ccc(C(=O)O/N=C(/C)c2cccs2)cc1 | inconclusive [falling, single point] | 
4 | O=C(O)c1ccc(N/N=C/C=C/c2ccccc2[N+](=O)[O-])cc1 | inconclusive [activator, single point] | 
5 | COc1ccc(CNC(=O)c2cc3c(=O)n4cccc(C)c4nc3n(CC3CCCO3)c2=N)cc1 (stereo not given) |  | inactive: 0.0952%
6 | CCc1ccc(C2C(C#N)=C(N)SC(N)=C2C#N)s1 | inconclusive [falling, single point] | 
7 | Cc1cc(C)c2nc(N(CCN(C)C)C(=O)/C=C/c3cccs3)sc2c1 | inconclusive [activator, single point] | 
8 | O=C(CCCc1ccccc1)Nc1ccnn1C1CCN(Cc2ccc(CO)o2)CC1 | inconclusive [falling, full curve, poor fit] | 
9 | O=C(CSc1nnc(CNc2ccc(F)cc2)o1)N1CCCc2ccccc21 | active: 26.9 µM | 
10 | Cc1ccccc1OCC(=O)NNC(=O)c1cc(S(=O)(=O)N2CCOCC2)ccc1N1CCCC1 | inconclusive [activator, single point] | 
11 | Nc1nc(N)c(N=Nc2ccc(S(N)(=O)=O)cc2)c(=O)[nH]1 |  | inactive: 3.62%
12 | COc1cc(C(=O)OC2CSCC2NC(=O)c2ccccc2)cc(OC)c1OC (stereo not given) |  | inactive: -0.473%
13 | NC(=O)c1nsc(C(=O)N(c2ccc(F)cc2)C(C(=O)NC2CCCC2)c2ccncc2)c1N (stereo not given) |  | inactive: 2.43%
14 | COCCn1nnnc1C(c1ccc(OC)c(OC)c1)N1CCN(c2nc3ccccc3s2)CC1 (stereo not given) |  | inconclusive: 30.1% [activator]
15 | Cc1cc(C)c(NC(=O)C[N+](C)(C)CC(O)COc2cccc3ccccc23)c(C)c1 (stereo not given) | inconclusive [activator, single point] | 
16 | COc1cc(/C=N/N2C(=O)CSC2=S)cc(Br)c1O | inconclusive [activator, single point] | 
17 | CCc1nnc(NC(=O)CSc2nc3cc4c(cc3cc2CC)OCCO4)s1 |  | inactive: -8%
18 | O=C(NNC(=O)c1cc2ccccc2cc1O)c1cccs1 | inconclusive [activator, partial curve] | 

Row | Structure (SMILES) | Potency | activity, negative = inhibition
19 | CSc1ccc(C(=S)N2CCN(Cc3ccccc3)CC2)cc1 | inconclusive [falling, single point] | 
20 | S=c1[nH]c(-c2ccccc2)cn1/N=C/c1cccs1 | inconclusive [falling, partial curve] | 
21 | O=C(COC(=O)C1CC(=O)N(Cc2ccccc2)C1)c1ccc(F)cc1 (stereo not given) | inconclusive [activator, single point] | 
22 | COc1ccc(C(=O)Nc2ccc(NC(=O)c3cccs3)c(OC)c2)cc1Cl |  | inactive: -1.16%
23 | CC(C)(C)c1nnc(NC(=O)c2ccc3c(c2)OCO3)s1 | inconclusive [falling, partial curve] | 
24 | Cc1ccc(NC(=O)CN2c3cccc4cccc(c34)S2(=O)=O)cc1 | inconclusive [falling, single point] | 
25 | Cc1ccc(-c2nn(-c3ccccc3)cc2C(=O)O)o1 | inconclusive [activator, partial curve] | 
26 | Cc1sccc1C1C(C#N)=C(N)SC(N)=C1C#N | inconclusive [falling, partial curve] | 
27 | O=C(N/N=C/c1ccc(Cl)c([N+](=O)[O-])c1)c1cnccn1 | inconclusive [falling, single point] | 
28 | S=c1nc(-c2cccc(Cl)c2)[nH][nH]1 |  | inactive: 1.87%
29 | CC(=O)C1=C(c2ccccc2)NC(=S)NC1c1ccc(O)c(O)c1 (stereo not given) |  | inactive: 28%
30 | CC(Sc1ccc(S(=O)(=O)N2CCN(C)CC2)cn1)C(=O)NC1(C#N)CCCCC1 (stereo not given) | inconclusive [falling, single point] | 
31 | Cc1ccc(C(=O)NCC(=O)OCC(=O)Nc2ccc3[nH]c(=O)[nH]c3c2)cc1 | inconclusive [falling, partial curve] | 
32 | COc1cccc(-c2csc3nnc(SCC(=O)c4ccc(NC(C)=O)cc4)n23)c1 | inconclusive [falling, full curve, poor fit] | 
33 | CCCCn1c(NC(=O)CC)c(C#N)c2nc3ccccc3nc21 |  | inactive: 2.98%
34 | COc1cc(-c2nn3c(C4CCCCC4)nnc3s2)cc(OC)c1OC |  | inactive: 3.59%
35 | CCCCCc1nnc(NC(=O)Cc2cccs2)s1 | inconclusive [falling, partial curve] | 
